# Assay results reported in PubChem BioAssay AID1508649 (National Center for Advancing Translational Sciences (NCATS), 2021).
# Out of some 43,000 compounds screened, about 830 (1.9%) were called active. The inconclusive results got no clear call from the source; some entries with a clear call stand among them for comparison. How the source made its calls: active means clear falling dose curves in both reporters; inconclusive means both reporters move, but less clearly or upward; inactive means either reporter flat; the % is the NLuc reporter signal. No potency is given beside an inconclusive call; the fits are too rough.
# Experiment: Cell-based coincidence reporter assay to measure PMP22 gene transcription in S16 Pmp22-F2sN cells - Primary screen
# Settings: S16 Pmp22-F2sN Schwann cells (luciferase reporters placed in the Pmp22 gene), FLuc/NLuc coincidence luminescence, 24 h; measured here: NLuc reporter readout, at 57.5 µM (top of the series); activity change, negative = inhibition: at the top concentration
# Method in brief: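 Rat S16 Pmp22-F2sN cells, 500-1,000/well in phenol red-free DMEM + 10% FBS, compound-treated 24 h (37C, 5% CO2). Luminescence: FLuc read, Stop&Glo added, NLuc read.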
# On the % scale 0 is the no-effect control and ±100 the full control effect; potency means the concentration at half of the fitted maximal effect; tags describe the fitted curve by direction and shape.
SMILES,Potency,"activity change, negative = inhibition"
Cc1cc(-c2ccc(C)c(S(=O)(=O)NCc3cccs3)c2)on1,"inconclusive [phenotype inactive, partial curve, poor fit]",–
CCn1cc2nc(SCc3cccc(C(F)(F)F)c3)n(Cc3ccc(OC)cc3)c(=O)c2n1,"inconclusive [phenotype inactive, single point]",–
CCS(=O)(=O)c1ncc(Cl)c(C(=O)NCc2ccccc2)n1,active: 8.43 µM,–
Cc1ccc(Nc2c(-c3ccc(C)o3)nc3cccc(C)n23)cc1,"inconclusive [phenotype inactive, single point]",–
Cc1ccc(C)c(NC(=O)c2nnn(Cc3ccc(F)cc3Cl)c2N)c1,"inconclusive [phenotype inactive, single point]",–
Cc1nnc(N2CCC(C(=O)NC(C)C)CC2)c2nn(-c3ccccc3)c(C)c12,"inconclusive [phenotype inactive, single point]",–
CC(=O)Nc1ccc(C(=O)Nc2ccc3c(c2)N(C2CCCC2)C(=O)c2ccccc2S3)cc1,"inconclusive [phenotype inactive, single point]",–
Cc1ccc(CN(C(=O)COc2ccc([N+](=O)[O-])cc2)c2ccccn2)o1,–,inactive: -5.83%
COc1ccc(CC(=O)N(Cc2nc(-c3ccc(C)cc3)no2)C(C)C)cc1,"inconclusive [phenotype inactive, single point]",–
CSc1nn(Cc2cccc(Cl)c2)c(N(C(C)=O)C(C)=O)c1S(=O)(=O)c1ccccc1,"inconclusive [phenotype inactive, single point]",–
O=C(Nc1ccc2nc(SCCOc3ccccc3Cl)sc2c1)c1ccc2c(c1)OCO2,–,inactive: -10.4%
CCS(=O)(=O)c1ccccc1C(=O)Nc1ccc(-c2nc3ccccc3s2)cc1,–,inactive: -13.8%
O=C(Cn1c(SCC(=O)Nc2ccc(F)cc2)nc2ccccc21)NCc1ccccc1Cl,"inconclusive [phenotype inactive, single point]",–
Cc1oc(C)c2c(=O)cc(-c3ccc4c(c3)OCO4)cc(OC(=O)c3cccc(Cl)c3)c12,"inconclusive [phenotype inactive, partial curve, poor fit]",–
N#Cc1c(C(F)(F)F)cc(-c2cccs2)nc1SCC(=O)Nc1cccc(C(F)(F)F)c1,"inconclusive [phenotype inactive, single point]",–
COc1ccc(S(=O)(=O)N(Cc2nc(-c3ccc(Cl)cc3)no2)C2CCCCC2)cc1,"inconclusive [phenotype inactive, single point]",–
COc1ccccc1N1CCN(S(=O)(=O)CCNC(=O)Cc2ccc(Cl)cc2)CC1,"inconclusive [phenotype inactive, partial curve, poor fit]",–
CCN1CCN(CCCNC(=O)Cn2c(-c3cccs3)cc3cc(F)ccc32)CC1,"inconclusive [phenotype inactive, single point]",–
Cc1ccc(C)c(Nc2nn3c(=O)c4cc5c(cc4nc3s2)OCO5)c1,–,inactive: -44.3%
Cc1ccccc1CCNC(=O)c1ccc2c(c1)nc1n2CCCCC1,–,inactive: 4.41%

SMILES,Potency,"activity change, negative = inhibition"
O=C(NCc1ccccc1)C(=O)Nc1c2c(nn1-c1ccccc1)CSC2,"inconclusive [phenotype inactive, single point]",–
COc1ccccc1CNc1ncnc2c1cnn2-c1ccc(C)cc1,"inconclusive [phenotype inactive, single point]",–
COc1cccc(N2CCN(C(=O)CN3CCSc4ccccc43)CC2)c1,"inconclusive [phenotype inactive, single point]",–
Cc1cccc(C(=O)Oc2c(Sc3ccccc3)c(C)nn2C(C)(C)C)c1,"inconclusive [phenotype inactive, single point]",–
CCc1nn(CC(=O)Nc2ccc(NC(C)=O)cc2)c(=O)c2cc3sccc3n12,–,inactive: -8.85%
CCN(C(=O)CSc1nc2ccccc2nc1Cc1ccc(F)cc1)c1cccc(C)c1,–,inactive: -50.8%
COc1cc(CNCCSc2nnnn2C)ccc1OCc1ccc(Cl)cc1Cl,"inconclusive [phenotype inactive, single point]",–
CCC(C(=O)Nc1ccc(C)c(Cl)c1)n1c(=O)c(-c2ccccc2NC(C)=O)nc2ccccc21 (centres undefined),"inconclusive [phenotype inactive, partial curve, poor fit]",–
O=C(NCCc1ccccc1)c1ccc(Cn2c(SCc3ccccc3)nc3cccnc32)cc1,–,inactive: 8.97%
CCC(Sc1nnc(-c2ccc(OC)c(OC)c2)c(-c2ccc(OC)c(OC)c2)n1)C(=O)NC1CCCC1 (centres undefined),"inconclusive [phenotype inactive, single point]",–
CCOc1ccc(N(CC)C(=O)CCc2nc(-c3ccccc3F)no2)cc1,"inconclusive [phenotype inactive, partial curve, poor fit]",–
Cc1cc2c(cc3c(SCC(=O)Nc4ccc(Cl)cc4F)nncn32)o1,–,inactive: 1.21%
CSc1oc(-c2cccs2)nc1S(=O)(=O)c1ccc(Br)cc1,–,inactive: 49.8%
COc1ccc(CNC(=O)C2CCCN(c3nnc(C)c4c(C)n(-c5ccc(C)cc5)nc34)C2)cc1 (centres undefined),active: 17 µM,–
CCOc1c(Cl)cc(C(=O)N(Cc2ccc(N(C)C)cc2)Cc2ccco2)cc1Cl,"inconclusive [phenotype inactive, single point]",–
COc1cccc(-c2noc(-c3cc(C(C)C)[nH]n3)n2)c1OC,–,inactive: -51.1%
Cc1cc(C)cc(NC(=O)c2c(C)oc3nc(C)nc(N4CCCC4)c23)c1,"inconclusive [phenotype inactive, single point]",–
CCn1c(SCc2ccc(F)cc2Cl)nc(=O)c2c(C(=O)OC)cc(C3CC3)nc21,"inconclusive [phenotype inactive, partial curve, poor fit]",–
CCc1ccc(-n2nc(CO)c(C(=O)NCC(c3ccccc3)c3ccccc3)n2)cc1,–,inactive: -27%
